Data from PubChem BioAssay AID463173 (ICCB-Longwood Screening Facility, Harvard Medical School, 2010).
Among all 52,000 compounds or so, about 1,700 (3.3%) were called active. Rule as the data show it: active = survival mostly below about 52% (no sharp cut-off); inactive = mostly above about 56%. Some of the results follow.

These molecules were tested on Wild type (assay: growth inhibition of S. aureus wild type versus tarO mutant, primary screen, teichoic acid synthesis inhibitors, RN4220, OD600 (AID 463173)). Settings: S. aureus RN4220 wild type/DeltatarO growth, OD600, 18 h, stronger effect = lower value, screened at 18.75 µg/mL (by protocol).

Row | SMILES | survival
1 | CC(C)(C)C1CCc2nc(NC(=O)COc3ccccc3[N+](=O)[O-])sc2C1 (stereo not drawn) | inactive: 119%
2 | COc1ccccc1CNCC(=O)NCc1ccc(C)cc1 | inactive: 105%
3 | COCCCNC(=O)CSc1nc2cc3c(cc2c(=O)n1CCCCCC(=O)NCCc1ccc(OC)c(OC)c1)OCO3 | inactive: 63%
4 | O=C(NCc1ccc2c(c1)OCO2)c1ccc(S(=O)(=O)N2CCCC2)cc1 | inactive: 100%
5 | O=C(NCc1ccc(F)cc1)c1ccc2c(c1)N(Cc1c(F)cccc1Cl)C(=O)CS2 | inactive: 65%
6 | Cc1cc(C)c2c(=O)cc(C(=O)Nc3sc4c(c3C#N)CCCC4)oc2c1 | inactive: 32%
7 | CC1=C(c2ccc(C)cc2)S(=O)(=O)N(Cc2ccc(C(=O)NCc3ccccc3)cc2)C1=O | inactive: 81%
8 | Cc1ccccc1NC(=O)CN1C(=O)C2(SCC(=O)N2c2ccc(F)cc2)c2ccccc21 (stereo not drawn) | inactive: 71%
9 | O=C(Nc1cc(C(F)(F)F)ccc1Cl)c1noc2c1CCCCC2 | inactive: 83%
10 | COc1ccc2c(c1)c(CC(=O)Nc1cccc(F)c1C)c(C)n2C(=O)c1ccc(Cl)cc1 | inactive: 152%
11 | O=C(Nc1ccc(F)c(F)c1)c1cc(S(=O)(=O)N2CCc3ccccc32)ccc1F | inactive: 72%
12 | COc1cccc(-n2ccn(CC(=O)Nc3ccccc3F)c(=O)c2=O)c1 | inactive: 83%
13 | Cc1ccc(CNS(=O)(=O)c2cc(C(=O)Nc3ccc(C(C)C)cc3)ccc2F)cc1 | inactive: 59%
14 | COc1ccc(C2=C(C)C(N3CCC(C(=O)NCc4ccco4)CC3)=NS2(=O)=O)cc1 | inactive: 56%
15 | CCc1ccccc1NC(=O)Cn1cc(C(=O)c2ccc(Cl)cc2)c(=O)c2ccc(C)nc21 | inactive: 71%
16 | CCN(CC)c1ccc(NC(=O)c2ccccc2F)cc1 | inactive: 115%
17 | Cc1ccc(CNC(=O)CSCc2nc(-c3ccc(Cl)cc3)oc2C)cc1 | inactive: 88%
18 | COc1cccc(-c2ccnc3c(-c4ccccc4)c(C)nn23)c1 | inactive: 58%
19 | COc1ccc(N2C(N)=C(C#N)C(c3ccc(O)c(OC)c3)C3=C2CCCC3=O)cc1 (stereo not drawn) | inactive: 89%
20 | CCOC(=O)c1[nH]c2ccccc2c1NC(=O)c1cc(OC)cc(OC)c1 | inactive: 62%
21 | COc1ccc(-c2cc(C(=O)NCCc3ccc(Cl)cc3)[nH]n2)cc1 | inactive: 71%
22 | Cc1ccccc1-c1nc2c3c(-c4ccccc4)c(-c4ccccc4)oc3ncn2n1 | inactive: 77%

Row | SMILES | survival
23 | Cc1cccc(N2CCN(C(=O)COCc3cc(-c4ccc5c(c4)OCO5)on3)CC2)c1C | inactive: 78%
24 | CCOc1ccc(NC(=O)N2CCC(CN3CCC(C)CC3)CC2)cc1 | inactive: 127%
25 | COc1ccc(-c2cc(C(=O)Nc3cccc(C(C)=O)c3)no2)cc1OC | inactive: 78%
26 | COC(=O)c1ccccc1NC(=O)COCc1cc(-c2cccs2)on1 | inactive: 88%
27 | Cc1ccc(CN(C(=O)c2ccc(F)cc2)c2ccccn2)o1 | inactive: 81%
28 | Cc1ccc(CNc2nc3c(c(=O)n(C)c(=O)n3C)n2Cc2ccc(Cl)cc2)cc1 | inactive: 71%
29 | CCOc1ccc2nc(Cl)c(CN(Cc3ccco3)C(=O)N(C)C)cc2c1 | inactive: 109%
30 | CCn1c(=O)n(-c2ccc(F)c(Cl)c2)c(=O)c2sc3ccccc3c21 | inactive: 90%
31 | Nc1nonc1C(=O)N1CCCC1 | inactive: 108%
32 | CN(C)c1ccc(NC(=O)CSc2nc(-c3ccco3)cc(C(F)(F)F)n2)cc1 | inactive: 79%
33 | O=C(COc1ccccc1Cl)N(Cc1ccco1)Cc1ccco1 | inactive: 81%
34 | Cc1ccccc1C(=O)Oc1cc(-c2ccc3c(c2)OCO3)cc(=O)c2c(C)oc(C)c12 | inactive: 107%
35 | O=C(NCc1ccc(F)cc1)C1CCN(S(=O)(=O)c2ccc3c(c2)CCCN3C(=O)C2CCC2)CC1 | inactive: 65%
36 | CCOc1cc(CNC(=O)c2ccc3c(c2)nc2n3CCCCC2)ccc1OC | inactive: 117%
37 | Cc1ccc(Cl)cc1NC(=O)c1cc2c(=O)n3cccc(C)c3nc2n1C | inactive: 81%
38 | Cc1ccc(S(=O)(=O)c2cnc(SCC(=O)Nc3ccccc3C(F)(F)F)[nH]c2=O)cc1C | inactive: 81%
39 | O=C(NCc1ccc(F)cc1)c1cnc(N2CCOCC2)c2ccccc12 | inactive: 74%
40 | Cc1cc(C)cc(NC(=O)C2CCCN(c3cnccn3)C2)c1 (stereo not drawn) | inactive: 84%
41 | CC1CCN(CCCNC(=O)CN2C(=O)CSc3ccc(S(=O)(=O)N4CCC(C)CC4)cc32)CC1 | inactive: 78%
42 | COc1ccc(-n2c(=O)c3c4c(sc3n(CC(=O)N3CCCCC3C)c2=O)CCC4)c(OC)c1 (stereo not drawn) | inactive: 79%
43 | Cc1ccc(N2CCN(C(=O)c3ccc(Nc4nc5ccccc5n5nnnc45)cc3)CC2)c(C)c1 | inactive: 94%
44 | COc1ccccc1N1CCN(S(=O)(=O)c2c(C)sc3ncn(CC(=O)Nc4ccc(C(C)C)cc4)c(=O)c23)CC1 | inactive: 90%

Row | SMILES | survival
45 | COc1ccc(Cl)cc1NC(=O)CSc1nc2c([nH]c3ccccc32)c(=O)n1-c1ccccc1 | inactive: 72%
46 | Cc1cccc(Cn2c(=O)n(CCCCC(=O)NCc3ccc4c(c3)OCO4)c(=O)c3ccccc32)c1 | inactive: 91%
47 | Cc1ccccc1C(=O)NC1CCN(CC(=O)NC(C)(C)C)CC1 | inactive: 100%
48 | O=C(NC1CCCC1)c1cnn(-c2ccc(F)cc2F)c1C1CCNCC1 | inactive: 22%
49 | Cc1ccc(C2=NC(c3ccc(F)cc3)=Nc3ccc(C)cc3N2)cc1 | inactive: 79%
50 | S=C(Nc1ccccc1)N1CCOCC1 | inactive: 109%
51 | CCSc1nnc2c(n1)OC(c1ccc(OC)cc1OC)N(C(C)=O)c1ccccc1-2 (stereo not drawn) | inactive: 78%
52 | CCN(CC)CCNC(=O)CN1C(=O)c2cccnc2Oc2ccc(C)cc21 | inactive: 74%
53 | COc1ccc(CCNC(=O)Cn2c(=O)n(-c3ccc(OC)c(OC)c3)c(=O)c3ccccc32)cc1OC | inactive: 95%
54 | COc1ccccc1OCCCCn1c(C2CC(=O)N(c3ccccc3Cl)C2)nc2ccccc21 (stereo not drawn) | inactive: 85%
55 | Cc1ccc(NC(=O)/C(C#N)=C/c2ccccc2Cl)cc1C | inactive: 63%
56 | CN(Cc1ccccc1)Cc1c(O)ccc2c(=O)c(-c3ccccc3)c(C(F)(F)F)oc12 | inactive: 130%
57 | Cc1ccc(NC(=O)CN2c3ccccc3S(=O)(=O)c3ccccc32)cc1F | inactive: 51%
58 | CCN(C(=O)c1sc2cc(OC)ccc2c1Cl)c1ccccc1 | active: -9%
59 | CC(C)NC(=O)COc1ccc(S(=O)(=O)N2CCCC2)cc1 | inactive: 94%
60 | Cn1cc(C(=O)O)c(=O)c2ccccc21 | inactive: 101%
61 | Cc1nc(-c2ccc(S(=O)(=O)N3CCN(c4cccc(Cl)c4)CC3)cc2)co1 | inactive: 65%
62 | CC(=O)c1cccc(NC(=O)c2sc(-n3nc(C)c(CCC(C)C)c3C)nc2C)c1 | inactive: 94%
63 | COc1cc(NC(=O)Cn2c(=O)n(CC(=O)NCCc3ccc(OC)c(OC)c3)c(=O)c3sccc32)cc(OC)c1 | inactive: 88%
64 | N#Cc1ccccc1NC(=O)c1cccs1 | inactive: 102%
65 | COc1cccc(Nc2sc(C(=O)c3ccc4c(c3)OCO4)c(N)c2S(=O)(=O)c2ccccc2)c1 | inactive: 85%
66 | COc1ccc(-n2nnnc2C2CCN(S(=O)(=O)c3ccc(F)cc3Cl)CC2)cc1 | inactive: 85%

Row | SMILES | survival
67 | COc1ccc(N2CC(NC(=O)Cc3cccs3)CC2=O)cc1 (stereo not drawn) | inactive: 22%
68 | CSc1ccc(CNC(=O)Cc2csc3ccccc23)cc1 | inactive: 89%
69 | CC(=O)NCCNc1nc2c(-c3cccc(C)c3)nnn2c2ccc(Cl)cc12 | inactive: 89%
70 | COc1ccc(C2=NC3(CCCCCC3)N(CC(=O)Nc3ccc(C)c(C)c3)C2=O)cc1 | inactive: 83%
71 | CCn1c(C)c(C)c2cc(C(=O)NCc3ccc(N(C)C)cc3)ccc21 | inactive: 126%
72 | COc1ccc(CNC(=O)CN(c2cc(C(F)(F)F)ccc2Cl)S(C)(=O)=O)cc1 | inactive: 64%
73 | Cc1ccc2ncc(S(=O)(=O)c3ccccc3)c(N3CCCCC3C)c2c1 (stereo not drawn) | active: 0%
74 | COc1ccc(Cl)cc1NC(=O)Cn1ncc2c3ccccc3n(Cc3ccccc3)c2c1=O | inactive: 122%
75 | Cc1ccc(C(=O)c2oc3ccccc3c2NC(=O)c2cc(-c3ccc(Cl)cc3)on2)cc1 | inactive: 86%
76 | Cc1ccccc1Nc1sc(C(=O)c2ccc(F)cc2)c(N)c1C(=O)NCCc1ccccc1 | inactive: 55%
77 | Cc1cc(C)c2[nH]c(=O)c(CN(CCCO)C3(c4nnnn4C4CCCC4)CCCC3)cc2c1 | inactive: 112%
78 | CCOc1ccc(C(=O)NCc2nnnn2-c2ccc(C)c(C)c2)cc1OCC | inactive: 73%
79 | CCc1nn(CC(=O)NCC(C)c2ccccc2)c(=O)c2cc3occc3n12 (stereo not drawn) | inactive: 123%
80 | Cc1cc(C)c(NC(=O)CCN2C(=O)c3ccccc3Sc3ncccc32)c(C)c1 | inactive: 114%
81 | Cc1nc2cc(C(=O)NCCC3=CCCCC3)ccc2n1-c1ccc(Br)cc1 | inactive: 75%
82 | Cc1ccc(-n2c(=O)c3ccc(C(=O)NCc4ccccc4Cl)cc3n(CC(=O)Nc3cccc(Cl)c3)c2=O)cc1 | inactive: 130%
83 | CSc1nc(Nc2ccc(C)cc2C)cc(-c2ccccc2)n1 | inactive: 50%
84 | COC(=O)c1cc2c(cc1NC(=O)c1cnn(-c3ccccc3)c1-n1cccc1)OCO2 | inactive: 80%
85 | CCCCCNC(=O)c1ccc2c(c1)ncn2-c1cccc(C)c1 | active: -3%
86 | O=C1COc2ccc(-c3cc(-c4ccc(Cl)cc4)c4c(n3)-c3ccccc3OC4)cc2N1 | inactive: 139%
87 | Cc1cccc(C(=O)Nc2nnc(S(=O)(=O)N(C)Cc3ccc(Cl)cc3)s2)c1 | inactive: 69%
88 | CCOC(=O)CNC(=O)CSc1cn(CC(=O)N2CCCCCC2)c2ccccc12 | inactive: 99%
